We go through 44 molecules from PMC4336329 (PLoS ONE, 2015).

Screen size: about 310,000 compounds; about 2,200 (0.71%) showed an effect of 50% or more. The effect is printed as a negative number. This is one part of the list.

For the assay, the target named is human ether-à-go-go-related gene (hERG) potassium channel (human, UniProt Q12809). Description: primary screen, population patch clamp on CHO cells stably expressing hERG.
Chain of human ether-à-go-go-related gene (hERG) potassium channel (Q12809 whole entry, looked up): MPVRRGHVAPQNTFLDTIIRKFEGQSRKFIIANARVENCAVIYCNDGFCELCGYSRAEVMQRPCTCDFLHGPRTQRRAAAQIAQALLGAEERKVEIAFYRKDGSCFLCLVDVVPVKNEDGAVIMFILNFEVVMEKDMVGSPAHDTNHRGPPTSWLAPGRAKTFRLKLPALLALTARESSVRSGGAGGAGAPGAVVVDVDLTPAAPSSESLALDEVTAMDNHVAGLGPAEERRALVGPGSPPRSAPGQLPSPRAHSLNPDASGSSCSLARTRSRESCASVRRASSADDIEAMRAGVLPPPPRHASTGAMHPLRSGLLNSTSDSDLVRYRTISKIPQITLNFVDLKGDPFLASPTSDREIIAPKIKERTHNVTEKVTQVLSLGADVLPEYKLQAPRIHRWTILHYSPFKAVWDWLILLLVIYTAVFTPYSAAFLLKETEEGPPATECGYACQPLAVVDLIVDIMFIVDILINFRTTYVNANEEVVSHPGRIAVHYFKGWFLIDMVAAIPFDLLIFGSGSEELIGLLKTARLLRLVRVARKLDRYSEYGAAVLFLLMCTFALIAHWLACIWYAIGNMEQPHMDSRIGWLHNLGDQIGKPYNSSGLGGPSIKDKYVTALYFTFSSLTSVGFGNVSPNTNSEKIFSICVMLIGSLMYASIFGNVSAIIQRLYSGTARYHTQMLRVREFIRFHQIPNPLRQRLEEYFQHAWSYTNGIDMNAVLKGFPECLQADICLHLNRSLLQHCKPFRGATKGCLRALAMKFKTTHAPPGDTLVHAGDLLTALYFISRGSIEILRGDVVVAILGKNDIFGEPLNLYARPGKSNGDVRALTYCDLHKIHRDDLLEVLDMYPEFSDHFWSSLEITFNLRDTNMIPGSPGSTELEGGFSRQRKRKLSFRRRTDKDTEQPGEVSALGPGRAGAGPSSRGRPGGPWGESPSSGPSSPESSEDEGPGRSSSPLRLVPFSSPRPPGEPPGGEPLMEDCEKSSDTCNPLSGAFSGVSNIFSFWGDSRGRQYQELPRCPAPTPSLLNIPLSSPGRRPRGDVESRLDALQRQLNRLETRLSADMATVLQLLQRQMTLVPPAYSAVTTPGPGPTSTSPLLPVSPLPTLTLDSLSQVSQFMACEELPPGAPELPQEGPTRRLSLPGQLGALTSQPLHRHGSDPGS
With `COc1ccc(C2NC3=C(CCC3)C3(C#N)C4(N=C(N)C23C#N)OCCO4)cc1` (centres unmarked), the “hERG current change (%, negative = inhibition) at 1uM” value was found to be 0.697%.

Regarding `O=C(NCCC1CCCCN1S(=O)(=O)c1ccc(F)cc1)C(=O)Nc1ccccc1F` (centres unmarked), the “hERG current change (%, negative = inhibition) at 1uM” value was found to be 14.6%.

`COC(=O)c1cc(O)cc(OC)c1Oc1cc(C)cc(O)c1C(=O)O`: the “hERG current change (%, negative = inhibition) at 1uM” value was 15.2%.

Turning to `Cc1c(CN2CCC(CO)(Cc3ccccc3)CC2)c2ccccc2n1C`, the “hERG current change (%, negative = inhibition) at 1uM” value came out at 6.98%.

Turning to `COc1ccc(Cl)cc1NC(=O)COC(=O)C1COc2ccccc2O1` (centres unmarked), the “hERG current change (%, negative = inhibition) at 1uM” value came out at 4.93%.

For `COc1cc(OC)cc(N(C(=O)CNC(=O)c2ccco2)C(C(=O)NCC2CCCO2)c2ccccc2)c1` (centres unmarked), the “hERG current change (%, negative = inhibition) at 1uM” value was 7.67%.

For `CCOc1ccccc1OCCCC(=O)Nc1cccc(S(=O)(=O)N2CCOCC2)c1`, the “hERG current change (%, negative = inhibition) at 1uM” value was 6.75%.

Turning to `Cc1ccc(NC(=O)Nc2cnc3ccccc3c2)cc1`, the “hERG current change (%, negative = inhibition) at 1uM” value worked out at 10.3%.

For `Nc1cccc(-c2nc3ccccc3s2)c1`, the “hERG current change (%, negative = inhibition) at 1uM” value is recorded as 2.59%.

With `Cc1ccc2nc(SCC(=O)Nc3ccc(Br)cc3)nc(=O)n2c1`, the “hERG current change (%, negative = inhibition) at 1uM” value came out at 10%.

`O=C(CSc1nnc(N2CCOCC2)n1-c1cccc(F)c1)N1CCN(c2ccccn2)CC1`: the “hERG current change (%, negative = inhibition) at 1uM” value was 16.7%.

On to `COc1ccc(CNc2nc3nc(C)c(Cl)c(C)n3n2)cc1`, for which the “hERG current change (%, negative = inhibition) at 1uM” value turned out to be 16%.

`Nc1ncnc2c1cnn2-c1ccccc1`: the “hERG current change (%, negative = inhibition) at 1uM” value was 2.75%.

Turning to `CCOc1ncccc1C(=O)Nc1cccc(C(=O)Nc2cccc(S(=O)(=O)CCO)c2)c1`, the “hERG current change (%, negative = inhibition) at 1uM” value is on record as 5.46%.

Consider `CC(=O)c1c(C)[nH]c(C(=O)N(C)C(c2ccccc2)c2ccccc2)c1C`, for which the “hERG current change (%, negative = inhibition) at 1uM” value is recorded as 10.4%.

`Cc1n[nH]c(C)c1CS(=O)(=O)c1ccccc1`: the “hERG current change (%, negative = inhibition) at 1uM” value was 14%.

Turning to `CC1CC(C)CN(C(=O)COC(=O)c2ccc[nH]c2=O)C1` (centres unmarked), the “hERG current change (%, negative = inhibition) at 1uM” value is on record as 7.04%.

In the case of `CC(C)c1ccc(Nc2nc(Cl)nc(NCc3ccco3)n2)cc1`, the “hERG current change (%, negative = inhibition) at 1uM” value turned out to be 11.8%.

`CC(=O)c1cccc(-n2c(CCC(=O)O)ccc2-c2cccs2)c1`: the “hERG current change (%, negative = inhibition) at 1uM” value is given as 7%.

On to `Cc1ccc(C(=O)/C=C/c2ccc3c(c2)OCO3)o1`, for which the “hERG current change (%, negative = inhibition) at 1uM” value came out at 5.84%.

Turning to `Cc1cccc(/C=C/c2onc(C)c2S(=O)(=O)N2CCC(C(=O)N3CCCCCC3)CC2)c1`, the “hERG current change (%, negative = inhibition) at 1uM” value was determined as 13.4%.

Consider `COc1cccc(-c2nc(CS(=O)(=O)CC(=O)N3CCc4ccccc4C3)c(C)o2)c1`, for which the “hERG current change (%, negative = inhibition) at 1uM” value is recorded as 5.88%.

For the molecule `O=[N+]([O-])c1cccnc1N1CCC(c2cc(-c3ccc(Cl)cc3)n[nH]2)CC1`, the “hERG current change (%, negative = inhibition) at 1uM” value was 2.13%.

Turning to `CCC(=O)Nc1nc(-c2ccccc2)ns1`, the “hERG current change (%, negative = inhibition) at 1uM” value is -3.29%.

As to `Cc1nc2c(c(=O)n1CCC1=CCCCC1)c1nc3ccccc3nc1n2/N=C/c1ccccc1`, the “hERG current change (%, negative = inhibition) at 1uM” value is 8.45%.

Regarding `Cc1cc(OC(=O)CNC(=O)OC(C)(C)C)c2c(C)cc(=O)oc2c1`, the “hERG current change (%, negative = inhibition) at 1uM” value was determined as 4.88%.

On to `Cc1cccc(NC(=O)C(=O)NCCCc2ccccc2)c1`, for which the “hERG current change (%, negative = inhibition) at 1uM” value was 9.27%.

In the case of `O=S(=O)(c1ccc(Br)cc1)N1CCC(c2nc3ccccc3[nH]2)CC1`, the “hERG current change (%, negative = inhibition) at 1uM” value is -6.12%.

On to `O=C(Nc1nnc(C2=COCCO2)o1)c1cccc([N+](=O)[O-])c1`, for which the “hERG current change (%, negative = inhibition) at 1uM” value came out at 10.9%.

Turning to `COc1ccc(C(=O)c2sc(Nc3ccccc3)nc2N)cc1OC`, the “hERG current change (%, negative = inhibition) at 1uM” value was 15.7%.

With `COC(=O)c1ccccc1NC(=O)C(C)NS(=O)(=O)c1ccc(OC)cc1` (centres unmarked), the “hERG current change (%, negative = inhibition) at 1uM” value is given as 6.2%.

For `Cc1ccc2nc(-c3ccc(SCC(=O)Nc4cc(C)on4)nc3)[nH]c2c1`, the “hERG current change (%, negative = inhibition) at 1uM” value stood at 11%.

Take `COc1ccc(CN(CC(=O)NCC2CCCO2)C(=O)CCC(=O)Nc2nccs2)cc1` (centres unmarked): the “hERG current change (%, negative = inhibition) at 1uM” value stood at 17.5%.

In the case of `O=C1NC(=S)NC(=O)C1=Cc1ccc(OCC(=O)N2CCCC2)cc1`, the “hERG current change (%, negative = inhibition) at 1uM” value was 6.23%.

Regarding `CCOC(=O)C1CCN(Cc2c(O)ccc3ccccc23)CC1`, the “hERG current change (%, negative = inhibition) at 1uM” value stood at 6.87%.

Turning to `CC(C)C(=O)OCC(=O)Nc1ccc2c(c1)CCC2`, the “hERG current change (%, negative = inhibition) at 1uM” value is reported as 15%.

Regarding `c1ccc2sc(N3CCCN(Cc4nc(-c5cnccn5)no4)CC3)nc2c1`, the “hERG current change (%, negative = inhibition) at 1uM” value was -1.27%.

For the molecule `O=C1C(c2ccccc2)=C(N2CC2)c2ccccc21`, the “hERG current change (%, negative = inhibition) at 1uM” value is 9.11%.

With `O=C(NC(=S)Nc1ccc2ncccc2c1)c1ccccc1`, the “hERG current change (%, negative = inhibition) at 1uM” value is reported as 9.42%.

For `O=C(O)c1ccc(Nc2ncnc3c2cnn3Cc2ccccc2)cc1`, the “hERG current change (%, negative = inhibition) at 1uM” value came to 13%.

As to `NS(=O)(=O)c1ccc(N/N=C/c2ccccn2)c([N+](=O)[O-])c1`, the “hERG current change (%, negative = inhibition) at 1uM” value was found to be 15.4%.

Regarding `CC1CCN(S(=O)(=O)c2csc(C(=O)Nc3ccccc3)c2)CC1`, the “hERG current change (%, negative = inhibition) at 1uM” value is on record as -0.636%.

Turning to `C=CCNC(=S)N1CCN(CCNC2=CC(=O)CC(C)(C)C2)CC1`, the “hERG current change (%, negative = inhibition) at 1uM” value was found to be 22.9%.

For the molecule `O=C(c1ccc2c(=O)n(Cc3ccccc3)c(=S)[nH]c2c1)N1CCOCC1`, the “hERG current change (%, negative = inhibition) at 1uM” value was 13.5%.
